Measurements published in the supplement of paper PMC11417369.
The other results are listed elsewhere or left out.

What follows are sequences tested on PfSIP2 AP2 domain 1 (GST-tagged) (assay: gcPBM binding intensity (ln(normalized median fluorescence intensity)); higher = stronger DNA binding).
Method in brief: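 Each value is the highest Masliner-normalised natural-log median intensity across replicate spots of either orientation of a probe. The probes were primer-extended double-stranded 36-bp intergenic genomic sequences on an Agilent 4 × 180k array, alongside negative controls, exposed for 1 h to GST-tagged P. falciparum DNA-binding domains expressed in E. coli. Bound protein was picked up with Alexa488 anti-GST antibody and scanned at 488 nm.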

Sequence	gcPBM binding intensity (ln)
TATTTTCTCGTTTGCATGCACCTTATTTTATGTGGT [GTGCAC_site9470]	10.8
TACTAAAACCCATACACACACATATTTATAGTACCA [CACACA_site7484]	6.99
AGTTATTTTAAATGTAGTACACAAAAGAAATATTAA [XGTACX_site4092]	7.12
CATAAATTAAAACACACACACACAAAAAAAAAAAAA [CACACA_site2262]	7.01
TTTAAAAATATATATTGTACATATATATATCTATGA [XGTACX_site3556]	7.02
ATAAAAATTAAAAGGAGTACTTAAATATTAAGATGG [XGTACX_site4815]	6.97
TACTATTTAAAATTTGAACACACATTATTTATTTTA [CACACA_site9020]	7.02
TTTATTTAAAAAATAAAAAAAAAAAAAAAAAAAAAA [CACACA_negctrl_site1670]	6.74
TATACAATATATATAACACACATATTTATATAAAAT [CACACA_site5061]	7.06
CAGTTGGAAGGAAAGTGTACATAAAAAAAAATATAA [XGTACX_site8784]	7.39
AAAATACCATTTGAAACACACAAAAAAAAAAAAAAT [CACACA_site2981]	6.81
AACATAAAAATTGAAGCACACACACTAATGAAATAC [CACACA_site8287]	7.56
ACAAATCTATAAGAGTGTACGAACAGTAAAGGAATT [XGTACX_site2070]	7.35
ATAAAAATCTTTAGTAGTACATTATAAAAAACTATT [XGTACX_site5531]	6.99
TTTTTAATATATATCACACATATATATTTTTAATTA [CACACA_site6099]	6.98
ATGTGAACATTCAATGCACACGATGTAATTATACAT [CACACA_site15]	6.97
CTAATCGTGCACAACTGTACATTTGTCAAGGGCAAT [XGTACX_site8662]	10.4
TATATATCTGTGAAAATACTTAAATTGTTATAAAAA [CACACA_negctrl_site1109]	6.78
CGGCTATTTCTATATACATGCATTTAAAAAAAAAAT [TGCATGCA_site354]	7.27

Sequence	gcPBM binding intensity (ln)
AAAAAAAAAATGAGCACACATAAATAAAAACAAACA [CACACA_site1573]	7.08
ACCTATTTCAAACACACACACACACTAACAAACATA [CACACA_site8233]	7.7
AACATATATTAGCTTACATGCAAAAAGTAAAAAAAT [TGCATGCA_site10]	7.07
AAAACATCAAAAATGTGTACATATATATATATATAT [XGTACX_site8884]	9.78
ATATATATATATGCATGTACATATTTATCTTTATAT [XGTACX_site232]	9.17
AATTTAAAACGGAGATGTACATATATAAATATATAC [XGTACX_site3723]	7.08
TATTTTTTATTTTAAATCCTCTGATATTTAATTTGT [TGCATGCA_negctrl_site84]	6.62
TATCCCCTTGTCCATATTAATTGTGACATCATATAT [XGTACX_negctrl_site9]	7.09
ATGTGTATATATATGTGTACATAATTTGTGTTATTC [XGTACX_site2509]	7.26
AAGGTATAATATATTTGTACATATACATTTTTGAAT [XGTACX_site6493]	6.98
TGAAAAATGTAATGCTCACACATATATATATATATA [CACACA_site5213]	9.69
GATTTTAATGGGTGTACACATTTATTTATATAAAGT [CACACA_site5317]	7.54
TTATGGTGCATGAAATCACACATTGATATATATGCT [CACACA_site5352]	11.3
ATATATATATATATATGTACATATATATATTATATT [XGTACX_site6303]	9.58
GTGTCTTTTATTAAATGTACATATTCATAGATAAAA [XGTACX_site8578]	7.53
TTATTTTTTTGGAATTCACACACAAAAAAAAAAATA [CACACA_site8650]	6.98
AATTGAGAAGTGTGTTGTACATAATGGCACATACCT [XGTACX_site1370]	7.22
TAGAATGAAAAAAAAGCATGCGGGCAAAAATTTTTA [TGCATGCA_site926]	6.75
ACCTTAAAAATAACTGCACACAAAAATAAATACCTT [CACACA_site8902]	7.71

Sequence	gcPBM binding intensity (ln)
ACGTAAACATGTAGAAGGCATTACACAATGGTATAC [TGCATGCA_negctrl_site512]	6.75
TATATATATATGTGTACACATGTCGCATTTTTTTAT [CACACA_site4648]	9.08
GATATTATAAAATAAAAATAAATCATTTCTATTCAT [CACACA_negctrl_site334]	6.53
TTATGTGTATAGGTTTGTACATAAAATGATGTATAG [XGTACX_site1401]	7.04
TCATGGAATATTTAAAGTACAAAAAGTGTTCTTTAC [XGTACX_site715]	6.95
TAGTCATATATATATGTACACACATATATATATTTA [CACACA_site8413]	7.03
ATATATTATGGGTGTGCACACAATATTTATATGTTC [CACACA_site2270]	8.64
TTATAATAAATATATAAAAAAAAAAAAAAAAAAAAA [CACACA_negctrl_site1639]	7.19
TGATAGCACCTTATATGTACATATAATATATTATTA [XGTACX_site837]	8.88
TTTTCTTATAAATGAAGTACAAAAAAAAAATATATA [XGTACX_site1352]	7.13
ACATATATGGAGCTTATACACACTTTTATATTTTAA [CACACA_site3854]	6.91
TTATCATATAATTATTGTACTAAAAAAAAAGCGAGT [XGTACX_site3086]	7.87
TTTTAAATATGCCATACACACTACTCTATAATAAAT [CACACA_site6987]	7.01
TAAAAGTTCACCTGTACACACATATAAATATGTACA [CACACA_site6901]	6.92
CGTTTTCTATATCATTGTACATATTCATGTGTAAAT [XGTACX_site2741]	7.13
AACAGACGAAGACACACACACATATATATATATATA [CACACA_site1020]	9.72
ATTAATAAATTCAATTGTACTTGTTTATACATAAAA [XGTACX_site3733]	6.95
TTGTTTAAGTCACGAACACACATATATCATCAATTT [CACACA_site986]	6.93
